Reference: PubChem BioAssay AID485344 (National Center for Advancing Translational Sciences (NCATS), 2010)
Out of some 340,000 compounds screened, about 6,900 (2%) were called active. Cut-off read from the data, not from the text of the source: active = inhibition above about 30%; inactive = below that, where a call was filed. The entries are a selection whose mix differs from that of the whole data set. Where no call is shown, the source filed none.

Target: D(2) dopamine receptor (Homo sapiens) (UniProt P14416)
Assay: HTS Assay for Allosteric Antagonists of the Human D2 Dopamine Receptor: Primary Screen for Antagonists; note: 0% is about no effect
Details: HEK293 TREx D2 cells, calcium flux, dopamine EC80; at 10 µM; stronger effect = higher value
Outline: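 Inhibition of EC80 dopamine-driven calcium flux, recorded kinetically, defines activity here; cells are a tetracycline-induced HEK293 T-REx line expressing force-coupled D2.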

Chain of UniProt P14416 (P14416 whole entry, looked up): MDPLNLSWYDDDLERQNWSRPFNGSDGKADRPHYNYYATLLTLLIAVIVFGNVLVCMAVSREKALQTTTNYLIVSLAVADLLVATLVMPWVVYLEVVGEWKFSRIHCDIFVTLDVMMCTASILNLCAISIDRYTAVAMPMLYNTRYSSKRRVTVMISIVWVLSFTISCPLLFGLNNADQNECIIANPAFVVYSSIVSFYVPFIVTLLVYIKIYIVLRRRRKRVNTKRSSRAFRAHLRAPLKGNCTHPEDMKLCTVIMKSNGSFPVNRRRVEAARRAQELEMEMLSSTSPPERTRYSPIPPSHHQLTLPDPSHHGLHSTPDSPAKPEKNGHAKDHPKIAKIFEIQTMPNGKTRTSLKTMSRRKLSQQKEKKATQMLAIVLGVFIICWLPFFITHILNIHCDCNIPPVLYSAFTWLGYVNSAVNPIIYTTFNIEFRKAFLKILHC

SMILES	inhibition
CCCCNS(=O)(=O)c1ccc2nc(-c3cccnc3)cc(C(=O)NCCCOCC)c2c1	-7.91%
CCS(=O)(=O)N1CC(=O)N(c2ccc(C)c(C)c2)C(C)(C(=O)NC2CCCCCC2)C1 (configuration not stated)	-16.4%
CCCN(C(=O)c1cn(CC(C)C)c(=O)c2cc(OC)c(OC)cc12)c1cccc(C)c1	1.46%
COc1ccc(N2CC(NC(=O)Cc3cccs3)CC2=O)cc1OC (configuration not stated)	17.1%
Cc1cc(S(=O)(=O)Nc2ccc3[nH]c(=O)sc3c2)ccc1F	-6.95%
CCOc1cc(-c2nnc(SCC(=O)NCCCOC)nc2-c2ccc(OC)c(OCC)c2)ccc1OC	14.7%
COc1ccc(NC(=O)C(NS(=O)(=O)c2cccc3nsnc23)c2ccccc2)cc1 (configuration not stated)	-13.2%
CCC(=O)Nc1nnc(S(=O)(=O)N2CCCCCC2)s1	2.76%
Cn1cc(S(=O)(=O)N2CCCCC2)cc1C(=O)NCc1ccc(Cl)cc1	-25.4%
Cc1ccc(N2CCN(S(=O)(=O)c3cc(Br)cc4c3N(C(=O)C3CC3)CC4)CC2C)cc1 (configuration not stated)	7.09%
CCCCSc1nnc2c(n1)OC(c1ccc(C)s1)Nc1ccccc1-2 (configuration not stated)	-11%
CSc1cccc(NC(=O)/C=C/c2ccc(Cl)cc2)c1	active: 69.8%
COc1ccc(NS(=O)(=O)c2cc(NC(=O)CCNC(C)=O)ccc2N2CCCCC2)cc1	active: 36.8%
CCC(Sc1nc2cc3c(cc2c(=O)n1CCCC(=O)NCc1ccc2c(c1)OCO2)OCO3)C(=O)NCCCOC (configuration not stated)	13.6%
CCC(=O)N1c2ccc(S(=O)(=O)N3CCCCCC3)cc2CC1C (configuration not stated)	2.76%
Nc1c(-c2nc(-c3ccccc3Cl)no2)nnn1-c1ccccc1F	-9.49%
Cc1ccc(NC(=O)COc2ccc(-c3nn(C)c(=O)c4ccccc34)cc2)c(C)c1	20%
COC(=O)c1cc2oc3ccccc3c2n1CC(=O)Nc1ccc(N(C)C)cc1	-1.94%
COC(=O)c1cc(NC(=O)CC2SCCNC2=O)cc(C(=O)OC)c1 (configuration not stated)	active: 34.9%
O=C(Cn1cc(S(=O)(=O)Cc2ccccc2Cl)c2ccccc21)Nc1cccc(C(F)(F)F)c1	-8.09%
Cc1nc2nc(C)c(CCC(=O)NCCc3ccccc3)c(C)n2n1	-0.558%
CC(COc1ccccc1)N1CCC(CO)(Cc2ccccc2)CC1 (configuration not stated)	active: 85.2%
Cc1ccc(S(=O)(=O)N(CC(=O)Nc2c(C)cccc2C)c2cccc(Cl)c2)cc1	2.47%
CC(C)Oc1cccc(C(=O)Nc2ccc3oc(-c4ccccc4)nc3c2)c1	-3.72%
Cc1ccc2nc(CN3CCN(S(=O)(=O)c4ccccc4)CC3)oc2c1	10.8%

SMILES	inhibition
Cc1cc(C)c(S(=O)(=O)Nn2cnnc2)c(C)c1	active: 31.9%
CCOc1ccc(C(NC(=O)c2cc(OC)c(OC)c(OC)c2)c2cc(Cl)c3cccnc3c2O)cc1 (configuration not stated)	3.52%
COC(=O)c1cc(C)nc2c1c(=O)nc(SCc1c(C)cc(C)cc1C)n2C1CC1	-5.33%
CCc1ccc(NC(=O)CSc2nc3ccccc3c(=O)n2CCC(=O)NC2CCCCC2)cc1	-21.9%
CCC(C)c1ccccc1OCCCN(C)Cc1ccccc1 (configuration not stated)	active: 34.6%
CN=c1scc(-c2cccs2)n1/N=C/c1ccc(O)c(O)c1O	active: 89.3%
Cc1nnc(SCC(N)=O)n1CC1CCCO1 (configuration not stated)	active: 32.8%
COc1ccc(C2c3c(-c4ccc(F)cc4)n[nH]c3C(=O)N2c2ccccc2)cc1OC (configuration not stated)	16.8%
CCOc1ccc(CCNC(=O)c2cc3c(-c4ccccc4F)nn(C)c3s2)cc1OCC	-7.75%
CCOC(=O)c1ccc(NC(=O)c2ccc(-c3cccc(Cl)c3C)o2)cc1	-8.85%
COc1ccc(C2c3c(oc4ccccc4c3=O)C(=O)N2c2nc(C)c(C)s2)cc1 (configuration not stated)	-10.5%
O=c1c2oc3ccccc3c2ncn1Cc1ccc(Br)cc1	22.9%
COc1ccc(OC)c2sc(N(CCCN(C)C)C(=O)c3ccco3)nc12	-19.8%
CCCCCCSc1ccc(-c2nc3ccc(C)cn3c2NCc2ccccc2)cc1	active: 34.2%
O=C(COc1ccccc1)Nc1ccc2nc(SCC(=O)N3CCCC3)sc2c1	5.88%
COc1ccc(C2CC(=O)Oc3c2c(=O)n(C)c2ccccc32)c(OC)c1OC (configuration not stated)	-5.51%
CCOc1ccc(NC(=O)CS(=O)(=O)Cc2nc(-c3ccc(C)cc3)oc2C)cc1	7.04%
O=C(CSc1nc2c(c(=O)[nH]1)CCCC2)Nc1ccc(Br)cc1	13.3%
COc1ccc(CNc2cc(-c3ccc(OC)cc3)nc3nncn23)cc1	-2.85%
COc1ccccc1N1CCN(Cc2c[nH]c3ccccc23)CC1	active: 48%
O=C(Cc1cccs1)NCc1ccncc1	active: 58%
Cc1ccc(NC(=O)C(c2ccccc2)N2Cc3ccccc3C2=O)cc1Cl (configuration not stated)	-14.5%
Cc1ccc(C)c(N2CCN(c3nc4ccccc4n4c(C)nnc34)CC2)c1	-11.7%
COc1ccc(NC(=O)CC2C(=O)N(c3ccc(C)cc3)C(=O)N2Cc2cccnc2)cc1 (configuration not stated)	3.8%
CCOC(=O)N1CCC2(CC1)OC(=O)C(C)=C2C(=O)NCc1cccc(OC)c1	1.21%

SMILES	inhibition
Cn1c(=O)n(-c2cccc(Cl)c2)c(=O)c2sc3ccccc3c21	-2.54%
CCCS(=O)(=O)N1CC(=O)N(c2ccccc2C)C(C)(C(=O)NC2CCCC2)C1 (configuration not stated)	5.06%
COC(=O)c1ccc(C2C(Oc3ccccc3)C(=O)N2CCc2ccc(F)cc2)cc1 (configuration not stated)	active: 36.3%
CNC(=O)c1sc2ncccc2c1-n1cccc1	15.5%
CCCCN1C(=O)CN(C2CCCCC2)C(=O)C1c1ccc(OC(C)C)c(OC)c1 (configuration not stated)	-0.354%
Cc1cccc(-n2ncc(C(=O)NCc3ccccn3)c2C2CCN(C(=O)OC(C)(C)C)CC2)c1	-4.18%
CCN1CCN(Cc2c(O)ccc3c(C)c(-c4ccccc4)c(=O)oc23)CC1	9.37%
COC(=O)NCc1c(C)nn(-c2ccccc2)c1-n1cccc1	-11.4%
COc1cc(O)c(C(CCN2CCN(c3ccccc3)CC2)c2ccc(N(C)C)cc2)c(OC)c1 (configuration not stated)	active: 32.1%
Cc1ccc(C)c(NC(=O)C(=O)NCCc2csc3nc(-c4ccccc4C)nn23)c1	11.7%
CCOC(=O)c1oc2c(c1C)-c1nn(Cc3ccccc3Cl)cc1CC2	-8.35%
CCc1ccccc1NC(=O)CN1C(=O)c2cccnc2Oc2ccc(Cl)cc21	-20.5%
CCOc1ccc(Br)cc1CNCCSc1nnnn1-c1ccccc1	-4.31%
CC(C)(C)OC(=O)N1CCC(c2c(C(=O)Nc3ccc4c(c3)OCCO4)cnn2-c2ccccc2)CC1	-2.55%
CCc1ccc(NC(=O)c2nn(-c3ccc(C)cc3)c(=O)n(C)c2=O)cc1	-5.6%
C=C(C)C(=O)Nc1cccc(C2=NOC3(C2)C[C@H](C(N)=O)N(C(=O)COc2ccc(Cl)cc2)C3)c1 (some centres not stated)	active: 35%
Cc1ccc(S(=O)(=O)c2nc(-c3ccco3)oc2SCC(C)C)cc1	2.3%
COc1cc(OC)c(NC(=O)Cn2cnc3sc(C)c(S(=O)(=O)N4CCN(C)CC4)c3c2=O)cc1Cl	20.5%
COc1ccc2ncc3c(-c4ccc(C)c(C)c4)nn(CC(=O)NC4CCCCC4)c3c2c1	6.84%
COc1ccc(C(=O)N2CCC(N3CCN(c4ccccc4)CC3)CC2)cc1	active: 57.1%
O=C(COCc1cc(-c2cccs2)on1)Nc1ccc(OC(F)(F)F)cc1	-0.962%
Cc1cc2c(cc1C)NC(CC(=O)Nc1ccccc1SC(F)(F)F)C(=O)N2 (configuration not stated)	11%
CCCCOc1ccc(NC(=O)Cn2nnnc2-c2ccccc2F)cc1	-23.1%
CN(C)c1ccc(CN(CC2CCCO2)C(=O)c2ccc(Br)cc2)cc1 (configuration not stated)	5.66%
CCOc1ccc(N2C(=O)N(Cc3c(F)cccc3Cl)c3ccccc3S2(=O)=O)cc1	-21%

SMILES	inhibition
Cc1ccc2[nH]c3c(=O)n(CC(=O)N4CCN(c5cccc(C(F)(F)F)c5)CC4)ncc3c2c1	-4.14%
COc1cccc(CNC(=O)CN2C(=O)CSc3c2c(C)nn3-c2ccccc2)c1	2.62%
Cc1ccc2[nH]c(CSc3nnc(COc4ccccc4C)n3C)cc(=O)c2c1	-0.444%
Cc1ccc(-n2c(=O)c3ccc(C(=O)NCc4ccccc4Cl)cc3n(CC(=O)Nc3cccc(F)c3)c2=O)cc1	-3.9%
CCc1cc2c(cc3c(=O)n(CC(=O)N4CCCCC4)ncn32)s1	4.63%
CCOc1ccc2nc(N3CCCC(C(=O)Nc4cccc(Cl)c4C)C3)sc2c1 (configuration not stated)	9.33%
CCCCN(CCCC)CCNC(=O)c1cc(-c2cccnc2)nc2ccc(S(=O)(=O)N3CCC(C)CC3)cc12	-11.7%
O=C(Cc1ccc(NC(=O)N2CCCCc3ccccc32)cc1)NCc1ccccc1	14.3%
COc1ccccc1CNC(=O)c1ccc(-c2nc(CS(=O)c3ccccc3)c(C)o2)cc1 (configuration not stated)	-8.52%
CCCCn1cc(S(=O)(=O)c2ccc(F)cc2)c(=O)c2ccccc21	0.214%
Cc1ccc(Cl)cc1NC(=O)CN1C(=O)COc2ccc(S(=O)(=O)N3CCOCC3)cc21	-6.12%
COc1ccc(Cn2c(SCC(N)=O)nc3c(sc4ccccc43)c2=O)cc1	-2.38%
Cc1cnc2c(c1SCC(=O)Nc1ccc(F)cc1F)c(=O)n(C)c(=O)n2C	1.16%
Cc1cc(F)ccc1NC(=O)C1CCCN(S(=O)(=O)c2ccc3c(c2)CCCC(=O)N3)C1 (configuration not stated)	3.01%
COc1ccc(S(=O)(=O)c2c(Nc3ccc(C)cc3)sc(C(=O)c3ccc4c(c3)OCO4)c2N)cc1	20.2%
COc1ccc(N(Cc2cccs2)C(=O)COc2ccc(C(C)C)cc2)cc1	5.42%
COc1ccc(C(=O)CCC(=O)Nc2ccc(OC)c(Cl)c2)cc1	4.71%
CCOC(=O)c1[nH]c2c(c1Cc1ccccc1OC)C(=O)CC(c1ccc(OCC)cc1)C2 (configuration not stated)	-13.5%
COc1ccc(C2=CC(c3cccc(C)c3)n3nnnc3N2)cc1 (configuration not stated)	-7.46%
COc1cc(NC(=O)Cn2nc(-c3ccc(C)c(C)c3)ccc2=O)cc(OC)c1	1.04%
CCOC(=O)c1c(C)oc2nc(C)nc(NCCc3ccc(SC)cc3)c12	-17.6%
CC(C)NC(=O)c1ccccc1NC(=O)c1nsc2ccccc12	-18.3%
